This note sets out measurements from patent publication US20090082371A1, “Treatment of Viral Disease and Cancer With Nf-kappaB Inhibitors” (priority 2005, published 2009).

One series concerns cells listed in Table 1. The series can be described thus: Cancer cell growth, panel of cells listed in Table 1. It is filed as cell-based, human. From the text:
The tested cells include LNCAP human prostate cancer cells, MDA-MB-468 human breast cancer cells, H1299 human lung cancer cells, AGS human gastric cancer cells, HepG2 human liver cancer cells, PANC-1 human pancreatic carcinoma cells, Jurkat human acute T-cell leukemia cells, A431 human epidermoid carcinoma cells, U251 human glioma cells, NBT-II human bladder cancer cells, and Hela human cervical cancer cells.

The test system of series [1] is VSV-G-enveloped HIV-Luciferase viruses (HIV-1).
The subject of series [2] is retrovirus expressing GFP. The conditions noted are these: 293T cells, tested dosages, two days after infection. On the procedure: FIG. 1. Retroviruses expressing a marker protein, the green fluorescent protein (GFP), were prepared as described previously (Lu M. and Shenk T., J Virol. 1999; 73: 676-683). 293T human embryonic kidney cells were infected with the GFP-retrovirus. Some cells were pretreated with 6-Amino-4-(4-phenoxy)phenethylaminoquinazoline (Column A), 6-Amino-4-(4-n-pentyloxy)phenethylaminoquinazoline (Column B), 6-Amino-4-(4-n-hexyloxy)phenethylaminoquinazoline (Column C), 6-Amino-4-(4-n-butoxy)phenethylaminoquinazoline (Column D), 6-Amino-4-(4-benzyloxy)phenethylaminoquinazoline (Column E), 6-Amino-4-[4-(2-pyridylmethyloxy)phenethylaminoquinazoline (Column F), 4-(4-Allyloxy)phenethylamino-6-aminoquinazoline (Column G), or rocaglamide (Column H) for 30 mins before viral infection. Two days later, the cells were photographed with a digital camera mounted on a microscope. […] Data represent the mean±standard deviation of three independent experiments.
293T cells were pretreated with or without 6-Amino-4-(4-phenoxy)phenethylaminoquinazoline (1.5 μM) 30 mins before infection of retrovirus expressing GFP. Two days later, the number of infected cells from two separate experiments was counted.

Regarding `C=CCOc1ccc(CCNc2ncnc3ccc(N)cc23)cc1`, in the series with cells listed in Table 1, the “effects on cancer cell growth” value was “comparable to treatment with 6-Amino-4-(4-phenoxy)phenethylaminoquinazoline”.

Regarding `Nc1ccc2ncnc(NCCc3ccc(OCc4ccccn4)cc3)c2c1`, in the series with cells listed in Table 1, the “effects on cancer cell growth” value was “comparable to treatment with 6-Amino-4-(4-phenoxy)phenethylaminoquinazoline”.

On to `Nc1ccc2ncnc(NCCc3ccc(OCc4ccccc4)cc3)c2c1`, for which the “effects on cancer cell growth” value in the series with cells listed in Table 1 was “comparable to treatment with 6-Amino-4-(4-phenoxy)phenethylaminoquinazoline”.

For “6-Amino-4-(4-n-butoxy)phenethylaminoquinazoline”, in series [1], the cell deaths observed result is recorded as “no obvious cell deaths”; the “inhibition of HIV-1 viral infection and replication (HIV-1-induced Luciferase activity)” value (“inhibition” for short) was “showed inhibition”. In addition, the cell deaths observed result in series [2] is recorded as “no obvious cell deaths”. Moreover, the “effects on cancer cell growth” value with cells listed in Table 1 is given as “comparable to treatment with 6-Amino-4-(4-phenoxy)phenethylaminoquinazoline”.

Consider “6-Amino-4-(4-n-hexyloxy)phenethylaminoquinazoline”, for which, in series [1], the cell deaths observed entry is given as “no obvious cell deaths”; the “inhibition” value is recorded as “showed inhibition”. Besides, the cell deaths observed entry in series [2] was “no obvious cell deaths”. For the same molecule, the “effects on cancer cell growth” value in the series with cells listed in Table 1 is on record as “comparable to treatment with 6-Amino-4-(4-phenoxy)phenethylaminoquinazoline”.

As for “6-Amino-4-(4-n-pentyloxy)phenethylaminoquinazoline”, the cell deaths observed result in series [1] and in series [2] was “no obvious cell deaths” in each case. Further, the “inhibition” value in series [1] is “showed inhibition”. Also, the “effects on cancer cell growth” value in the series on cells listed in Table 1 is on record as “comparable to treatment with 6-Amino-4-(4-phenoxy)phenethylaminoquinazoline”.

Regarding `CCOc1ccc(CCNc2ncnc3ccc(N)cc23)cc1` [6-Amino-4-(4-ethoxy)phenethylaminoquinazoline], in the series on cells listed in Table 1, the “effects on cancer cell growth” value is given as “comparable to treatment with 6-Amino-4-(4-phenoxy)phenethylaminoquinazoline”.

For `CC(C)Oc1ccc(CCNc2ncnc3ccc(N)cc23)cc1` [6-Amino-4-(4-iso-propoxy)phenethylaminoquinazoline], the “effects on cancer cell growth” value with cells listed in Table 1 is “comparable to treatment with 6-Amino-4-(4-phenoxy)phenethylaminoquinazoline”.

As for `C#CCOc1ccc(CCNc2ncnc3ccc(N)cc23)cc1` [6-Amino-4-(4-propargyloxy)phenethylaminoquinazoline], in the series on cells listed in Table 1, the “effects on cancer cell growth” value is reported as “comparable to treatment with 6-Amino-4-(4-phenoxy)phenethylaminoquinazoline”.

On to `CCCOc1ccc(CCNc2ncnc3ccc(N)cc23)cc1` [6-Amino-4-(4-propoxy)phenethylaminoquinazoline], for which, in the series on cells listed in Table 1, the “effects on cancer cell growth” value was “comparable to treatment with 6-Amino-4-(4-phenoxy)phenethylaminoquinazoline”.
